PubChem BioAssay AID463173 (ICCB-Longwood Screening Facility, Harvard Medical School, 2010)
The campaign covered roughly 52,000 compounds. About 1,700 (3.3%) were called active. Cut-off read from the data, not from the text of the source: active = survival mostly below about 52% (no sharp cut-off); inactive = mostly above about 56%. This is one part of the list.

tested on: Wild type; experiment: growth inhibition of S. aureus wild type versus tarO mutant, primary screen, teichoic acid synthesis inhibitors, RN4220, OD600 (AID 463173); settings: S. aureus RN4220 wild type/DeltatarO growth, OD600, 18 h, active compounds read low, screened at 18.75 µg/mL (by protocol)

For `CCn1c2ccccc2c2cc(CN3CCN(Cc4cc(OC)c(O)c(OC)c4)CC3)ccc21`, which survival is on record?
The survival was inactive: 54%.

With `COc1ccc(N2CCN(c3ccc(-c4nc(-c5ccccc5)no4)cc3[N+](=O)[O-])CC2)cc1` as the molecule, how does the survival read?
The survival was inactive: 83%.

How did the survival turn out when `COc1cc2[nH]c(=O)n(Cc3ccc(C(=O)N4CCN(c5ccc(Cl)cc5)CC4)cc3)c(=O)c2cc1OC` was run?
The survival was inactive: 142%.

For `O=C(Nc1cccc(Cl)c1Cl)c1ccc2c(c1)N(Cc1cccc(Cl)c1)C(=O)c1ccccc1S2=O` (stereo not drawn), which survival is on record?
Its survival is inactive: 77%.

How did the survival turn out when `Cc1ccc(NC(=O)c2sc3ncn(Cc4cccc(F)c4)c(=O)c3c2C)c(Br)c1` was run?
Its survival is inactive: 82%.

Which survival does the source give for `Cc1ccc(N(Cc2cccs2)C(=O)C(C)Oc2ccc(Cl)c(C)c2)cc1` (stereo not drawn) here?
The survival was inactive: 80%.

`Cc1ccc(C)c(NC(=O)Cn2nc(C)c3nn(-c4ccc(Cl)cc4)c(C)c3c2=O)c1` was tested. Which survival did it give?
The survival was inactive: 101%.

Which survival does the source give for `CCOc1ccc(CCNC(=O)c2cc3c(=O)n(CC)c4ccccc4c3s2)cc1OCC` here?
Its survival is inactive: 75%.

How did the survival turn out when `CCc1cccc(NC(=O)CSc2nncn3c2cc2sccc23)c1` was run?
The survival was inactive: 73%.

Which survival does the source give for `CC(C)CCNC(=O)c1ccc2c(c1)NC(=O)C(C(C)C)N2` (stereo not drawn) here?
The survival was inactive: 68%.

Which survival does the source give for `Cc1c(C)n(Cc2ccccc2)c2ccc(C(=O)N3CCN(c4ccc(F)cc4)CC3)cc12` here?
The survival was inactive: 69%.

How did the survival turn out when `CCN(Cc1ccccc1)C(=O)c1cc(-c2ccccc2)n[nH]1` was run?
The survival was inactive: 65%.

For `Cc1ccc(Cl)cc1N1CCN(C(=O)CN2C(=O)COc3ccc(S(=O)(=O)N4CCCCCC4)cc32)CC1`, which survival is on record?
Its survival is inactive: 74%.

With `COc1ccc(S(=O)(=O)NCCSc2nnnn2-c2ccccc2)cc1OC` as the molecule, how does the survival read?
Its survival is inactive: 138%.

With `Cc1ccccc1Nc1c(-c2cccc(Cl)c2)nc2ncccn12` as the molecule, how does the survival read?
Its survival is inactive: 83%.

For `Cc1ccc(NC(=O)N2CCCC2C(=O)NCC2CCCCC2)cc1` (stereo not drawn), which survival is on record?
The survival was inactive: 110%.

For `Cc1oc2ccc(O)c(CN3CCOCC3)c2c1C(=O)Nc1cccc(C(F)(F)F)c1`, which survival is on record?
The survival was inactive: 88%.

For `Cn1cnc(S(=O)(=O)N2CCCC(C(=O)NCc3ccc(Cl)cc3)C2)c1` (stereo not drawn), which survival is on record?
Its survival is inactive: 99%.

For `CCN(CC)S(=O)(=O)c1ccc2c(c1)N(CC(=O)N1CCN(c3ccc(OC)cc3)CC1)C(=O)CO2`, which survival is on record?
Its survival is inactive: 60%.

For `COc1ccc(-n2c(SCC(N)=O)nc3c(oc4ccccc43)c2=O)cc1`, which survival is on record?
Its survival is inactive: 85%.

How did the survival turn out when `Cc1ccc(-c2onc(C)c2C)cc1S(=O)(=O)N1CCOc2ccc(Cl)cc21` was run?
Its survival is inactive: 84%.

How did the survival turn out when `c1ccc(CN2CCN(CCN3CCCCC3)CC2)cc1` was run?
Its survival is inactive: 107%.

Which survival does the source give for `COc1cc(/C=C(\C#N)c2nc3ccccc3[nH]2)ccc1OCc1ccccc1F` here?
The survival was inactive: 65%.

For `CC(C)CN1CCc2nc(Nc3ccc(F)cc3F)ncc2C1`, which survival is on record?
The survival was inactive: 73%.

`CC(=O)N1CCc2c(sc3c2c(=O)n(Cc2ccccc2)c(=O)n3Cc2ccccc2F)C1` was tested. Which survival did it give?
The survival was inactive: 110%.

With `O=C(Cc1cccs1)Nc1c(C(=O)Nc2ccc(F)cc2)oc2ccccc12` as the molecule, how does the survival read?
The survival was inactive: 110%.

For `CCC(Sc1nc(-c2ccc(F)cc2)nc2c1Cc1c(CO)cnc(C)c1O2)C(=O)Nc1ccc(F)cc1` (stereo not drawn), which survival is on record?
Its survival is inactive: 85%.

For `COc1c(Cl)cc(C(=O)N(Cc2ccccc2F)C2CCS(=O)(=O)C2)cc1Cl` (stereo not drawn), which survival is on record?
Its survival is inactive: 86%.

With `COc1ccc(CCC(=O)NCc2ccc3c(c2)CCN3C(=O)c2ccccc2)cc1` as the molecule, how does the survival read?
Its survival is inactive: 71%.

`CCS(=O)(=O)N1CCc2cc(C(=O)N3CCN(c4ccccc4OC)CC3)ccc21` was tested. Which survival did it give?
Its survival is inactive: 108%.

With `CC(C)(C)OC(=O)N1CCc2nc(N3CCN(c4ncccn4)CC3)ncc2C1` as the molecule, how does the survival read?
Its survival is inactive: 85%.

Which survival does the source give for `COc1ccc2cc(C#N)c(N3CCN(Cc4nnnn4CCC(C)C)CC3)nc2c1` here?
Its survival is inactive: 106%.

For `Cn1c(=O)c2c(nc(SCC(=O)Nc3ccc(F)cc3)n2Cc2ccccc2F)n(C)c1=O`, which survival is on record?
The survival was inactive: 123%.

`COc1ccc(C(CNC(=O)c2ccc(F)cc2)N2CCCC2)cc1` (stereo not drawn) was tested. Which survival did it give?
Its survival is inactive: 105%.

Which survival does the source give for `CCCSc1ncc(Cl)c(C(=O)Nc2c(C(=O)c3ccc(C)cc3)oc3ccccc23)n1` here?
The survival was inactive: 84%.

With `CCC(=O)N1c2ccc(S(=O)(=O)CCC(=O)N3CCN(c4cc(C)ccc4C)CC3)cc2CC1C` (stereo not drawn) as the molecule, how does the survival read?
The survival was inactive: 82%.

`CCOc1ccc2nc(NC(=O)c3nc(SCc4ccccc4C)ncc3Cl)sc2c1` was tested. Which survival did it give?
The survival was inactive: 110%.

For `Cc1cc(C)cc(NC(=O)N2CCC(CN3CCCCCC3)CC2)c1`, which survival is on record?
Its survival is inactive: 57%.

Which survival does the source give for `O=C(NC1CC(=O)N(c2ccccc2)C1)C(c1ccccc1)c1ccccc1` (stereo not drawn) here?
The survival was inactive: 69%.

With `c1ccc2c(c1)CN1CCCC1=N2` as the molecule, how does the survival read?
The survival was inactive: 99%.

Which survival does the source give for `COC(=O)c1c(NC(=O)/C(C#N)=C/c2ccc(OC)cc2)sc2c1CCC2` here?
Its survival is inactive: 145%.

For `O=C(CSc1nc2nccnc2c(=O)n1CCc1c[nH]c2ccccc12)Nc1ccccc1`, which survival is on record?
Its survival is inactive: 85%.

For `C=CCN1CCN(Cc2nnnn2Cc2ccc(OC)cc2)CC1`, which survival is on record?
The survival was inactive: 113%.

How did the survival turn out when `COc1ccc(S(=O)(=O)N2CCC(N3CCN(Cc4ccc(F)cc4)C(=O)C3=O)CC2)cc1` was run?
Its survival is inactive: 70%.

With `Cc1c(CCNC(=O)c2ccc(Br)o2)sc2nc(-c3ccc(Cl)cc3)nn12` as the molecule, how does the survival read?
The survival was inactive: 84%.

With `Cc1ccc(C(=O)N2CCCCC2)cc1NC(=O)c1nsc2ccccc12` as the molecule, how does the survival read?
The survival was active: -6%.

Which survival does the source give for `CCc1ccc(C(=O)c2cn(CC(=O)Nc3cc(OC)ccc3OC)c3nc(C)ccc3c2=O)cc1` here?
Its survival is inactive: 124%.

`O=C(CC1S/C(=N\N=C2CCCCC2)NC1=O)Nc1ccc(F)cc1` (stereo not drawn) was tested. Which survival did it give?
The survival was inactive: 113%.

Which survival does the source give for `O=C(Nc1ccccc1C(F)(F)F)C1CCN(S(=O)(=O)Cc2ccccc2)CC1` here?
The survival was inactive: 85%.

`CN(C)CCNCc1cc2c(-c3cccc(F)c3)nn(-c3ccccc3)c2[nH]c1=O` was tested. Which survival did it give?
The survival was inactive: 128%.

How did the survival turn out when `Cc1cc2nsnc2c(S(=O)(=O)NCC(=O)O)c1C` was run?
Its survival is inactive: 99%.

`Cc1oc2cc3oc(=O)c(CC(=O)NCc4ccccc4)c(C)c3cc2c1C` was tested. Which survival did it give?
Its survival is inactive: 84%.

For `Cc1ccc(C)c(NC(=O)c2ccc3c(c2)CCCN3S(C)(=O)=O)c1`, which survival is on record?
Its survival is inactive: 102%.

Which survival does the source give for `COc1cccc(NC(=O)c2oc3ccccc3c2NC(=O)c2ccc(F)c(F)c2)c1` here?
The survival was inactive: 86%.

`Cc1ccc(-n2c(=O)c3sc4ccccc4c3n(C)c2=O)cc1F` was tested. Which survival did it give?
Its survival is inactive: 83%.

Which survival does the source give for `CCOc1ccc(NC(=O)CSc2ncc3c(n2)-c2ccccc2N(C)S3(=O)=O)cc1` here?
The survival was inactive: 78%.

With `Clc1ccccc1-c1nc(Nc2ccccc2)nc2ccc(Br)cc12` as the molecule, how does the survival read?
Its survival is inactive: 31%.

How did the survival turn out when `Cc1ccc(NC(=O)N2CCC(n3c(C)nc4cccnc43)CC2)c(Cl)c1` was run?
Its survival is inactive: 71%.

`COCCNC(=O)CCC(=O)NNc1nc2ccccc2c2nc(-c3ccccc3)nn12` was tested. Which survival did it give?
The survival was inactive: 76%.

For `Cc1ccc(NC(=O)c2cc(S(=O)(=O)N3CCOCC3)c(Cl)cc2Cl)cc1`, which survival is on record?
The survival was inactive: 69%.

For `Cc1cc(C)cc(NC(=O)C2CCN(S(=O)(=O)c3cccc4nonc34)CC2)c1`, which survival is on record?
Its survival is inactive: 59%.

How did the survival turn out when `Cc1nc2sccn2c1-c1csc(Nc2cccc(Cl)c2C)n1` was run?
The survival was inactive: 122%.

With `COc1ccc(CNC(=O)Nc2cn(CC(C)C)c(=O)c3ccccc23)c(OC)c1` as the molecule, how does the survival read?
Its survival is inactive: 89%.

`CCc1ccc(CNC(=O)c2ccc(CSc3nc4ccncc4n3Cc3ccccc3)cc2)cc1` was tested. Which survival did it give?
Its survival is inactive: 90%.

For `CCC(Oc1ccccc1)C(=O)Nc1nnc(S(=O)(=O)Nc2ccccc2)s1` (stereo not drawn), which survival is on record?
Its survival is inactive: 40%.

For `CCn1c2ccccc2c2cc(NC(=O)COC)ccc21`, which survival is on record?
Its survival is inactive: 108%.

Which survival does the source give for `Cc1noc(-c2ccccc2OCC(=O)Nc2cccc([N+](=O)[O-])c2)n1` here?
Its survival is inactive: 100%.

With `COC(=O)CCc1sc(Nc2ccc(OC)cc2)nc1-c1ccc(OC)cc1` as the molecule, how does the survival read?
Its survival is inactive: 77%.

For `Cc1ccccc1NC(=O)CC1C(=O)NCCN1C(=O)c1cccc(Cl)c1` (stereo not drawn), which survival is on record?
Its survival is inactive: 79%.

How did the survival turn out when `CC(=O)c1ccc(N2CCN(C(=O)NCc3noc4ccc(C)cc34)CC2)cc1` was run?
Its survival is inactive: 74%.

For `CCNC(=O)CCSc1nnc(-c2ccccc2C)o1`, which survival is on record?
The survival was inactive: 99%.

For `Cc1ccc(N(C(=O)Cn2nnc3ccccc32)C(C(=O)NCc2ccco2)c2cccnc2)cc1C` (stereo not drawn), which survival is on record?
The survival was inactive: 103%.

How did the survival turn out when `Cc1ccc(S(=O)(=O)NCc2nc3nc(C)cc(C)n3n2)c(C)c1` was run?
The survival was inactive: 126%.

`CCOC(=O)C1CCCN(S(=O)(=O)c2ccc3[nH]c(=O)ccc3c2)C1` (stereo not drawn) was tested. Which survival did it give?
The survival was inactive: 63%.

How did the survival turn out when `COc1ccc(N2CCN(C(=O)CCS(=O)(=O)c3cc4c(cc3Cl)NC(=O)CO4)CC2)cc1` was run?
Its survival is inactive: 85%.

Which survival does the source give for `COc1ccc(-c2nnn3c2nc(N2CCCC(C)C2)c2ccccc23)cc1` (stereo not drawn) here?
Its survival is active: 0%.

`Cc1ccc(C)c(N(C)C(=O)C2CCN(S(=O)(=O)c3cccc4nsnc34)CC2)c1` was tested. Which survival did it give?
The survival was inactive: 117%.

`CC(=O)c1cc(C(=O)Nc2cccc(C)c2)c2ccccn12` was tested. Which survival did it give?
Its survival is inactive: 63%.

With `CCN1c2ccccc2-c2nc(SCC(=O)Nc3ccc(C)c(Cl)c3)ncc2S1(=O)=O` as the molecule, how does the survival read?
The survival was inactive: 19%.

How did the survival turn out when `CCOC(=O)c1ccccc1NC(=O)CSc1nc2ncccc2[nH]1` was run?
Its survival is inactive: 70%.

How did the survival turn out when `Cc1ccc(S(=O)(=O)c2[nH]c(-c3ccccc3)nc2SCC(=O)O)cc1` was run?
The survival was inactive: 93%.

For `COc1ccc(N2CCN(CC(O)COc3ccc(C(C)(C)C)cc3)CC2)cc1` (stereo not drawn), which survival is on record?
The survival was inactive: 87%.

Which survival does the source give for `CCOC(=O)c1ccc(NC(=O)CC2C(=O)N(c3ccccc3)C(=O)N2Cc2cccs2)cc1` (stereo not drawn) here?
Its survival is inactive: 76%.

With `Cc1ccc2c(CNCCc3ccc(Cl)cc3)c(C(=O)O)n(Cc3ccc(F)cc3)c2c1` as the molecule, how does the survival read?
The survival was active: 4%.

For `CCOc1ccc(CNC(=O)c2ccc3nc(Cc4ccc(OC)cc4)oc3c2)cc1OC`, which survival is on record?
The survival was inactive: 66%.

With `O=c1c2sc3ccccc3c2n(Cc2ccccc2)c(=O)n1Cc1ccccc1` as the molecule, how does the survival read?
The survival was inactive: 129%.

Which survival does the source give for `Cc1ccc(Cl)cc1NC(=O)c1ccc(-c2nc(CSc3ccccc3)c(C)o2)cc1` here?
The survival was inactive: 55%.

How did the survival turn out when `CCc1ccc(CN(C(=O)c2nc(SC)ncc2Cl)C2CCS(=O)(=O)C2)cc1` (stereo not drawn) was run?
The survival was inactive: 88%.
